Consider one molecule from paper PMC10276812, “Cannabidiol inhibits Nav channels through two distinct binding sites” (Nature Communications, 2023).

For this test, the target named is T1, human Nav1.7 (human).
T1 construct: voltage-gated sodium channel Nav1.7 alpha subunit, human, Uniprot, full length, codon-optimized cDNA; Twin-Strep-tag and Flag-tag in tandem at the amino terminus; no tag cleavage is described; Sample contained cannabidiol (CBD) throughout; also called hNav1.7; α1 subunit; not shown: Twin-Strep-tag, N-terminal, kept; Flag, N-terminal, kept
The test can be described thus: cryo-EM structure; Nav1.7-β1-β2 co-expressed in HEK293F, purified through the Flag and Strep tags of Nav1.7 and SEC in 25 mM Tris-HCl pH 7.5, 150 mM NaCl, 0.02% GDN, 10 μM CBD; incubated with 100 μM CBD before grids; 2.8 Å. As to conditions: both partners purified.

B1: β2 subunit (natural protein)
chain: not shown
notes: source: HEK293F, transiently co-transfected with Nav1.7 and β1, co-purified with Nav1.7
For B1, the binding result is reported as “binds”.
